# Test results as given in article PMC4336329 (PLoS ONE, 2015).
# Hit rate of the full screen: of about 310,000 compounds, about 14,000 (4.5%) showed an effect of 50% or more. Effects have a minus sign here. The list shows a part of the results.
# Target: human ether-à-go-go-related gene (hERG) potassium channel (human, UniProt Q12809)
# Assay: primary screen, population patch clamp on CHO cells stably expressing hERG
# 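Further: peak tail current of the secondary pulse compared with the same well before compound.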
# Chain of human ether-à-go-go-related gene (hERG) potassium channel (Q12809 whole entry, looked up): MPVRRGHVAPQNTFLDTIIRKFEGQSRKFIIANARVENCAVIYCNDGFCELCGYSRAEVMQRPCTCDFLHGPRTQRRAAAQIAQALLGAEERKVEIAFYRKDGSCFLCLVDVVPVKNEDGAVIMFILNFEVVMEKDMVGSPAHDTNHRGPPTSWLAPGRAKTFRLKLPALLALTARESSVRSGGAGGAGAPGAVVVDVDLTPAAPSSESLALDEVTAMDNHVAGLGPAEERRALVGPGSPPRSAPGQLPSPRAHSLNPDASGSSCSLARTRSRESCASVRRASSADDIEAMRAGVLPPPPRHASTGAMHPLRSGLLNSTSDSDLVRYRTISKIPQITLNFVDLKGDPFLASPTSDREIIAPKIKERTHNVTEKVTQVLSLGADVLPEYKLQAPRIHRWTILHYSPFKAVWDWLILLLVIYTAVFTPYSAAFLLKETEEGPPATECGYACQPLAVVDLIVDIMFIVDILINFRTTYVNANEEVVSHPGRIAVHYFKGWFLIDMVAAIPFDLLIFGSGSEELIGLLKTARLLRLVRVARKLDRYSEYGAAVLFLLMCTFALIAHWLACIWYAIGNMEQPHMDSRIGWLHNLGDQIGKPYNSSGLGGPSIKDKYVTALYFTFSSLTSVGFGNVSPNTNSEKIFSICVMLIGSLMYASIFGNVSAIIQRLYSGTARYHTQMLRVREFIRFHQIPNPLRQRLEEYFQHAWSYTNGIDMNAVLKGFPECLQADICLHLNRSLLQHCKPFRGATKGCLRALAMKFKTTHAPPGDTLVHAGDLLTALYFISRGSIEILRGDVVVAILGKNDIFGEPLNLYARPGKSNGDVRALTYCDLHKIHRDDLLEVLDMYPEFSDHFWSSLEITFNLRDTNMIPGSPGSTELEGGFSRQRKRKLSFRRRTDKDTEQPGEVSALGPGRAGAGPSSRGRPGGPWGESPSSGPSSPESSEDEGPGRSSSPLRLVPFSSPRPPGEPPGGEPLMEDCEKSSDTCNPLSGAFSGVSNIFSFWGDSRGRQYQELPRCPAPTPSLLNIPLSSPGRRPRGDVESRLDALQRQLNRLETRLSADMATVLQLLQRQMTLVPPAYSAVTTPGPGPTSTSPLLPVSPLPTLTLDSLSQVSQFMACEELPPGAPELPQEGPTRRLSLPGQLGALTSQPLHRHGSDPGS
row,Compound,"hERG current change (%, negative = inhibition) at 10uM [%]"
1,Cc1ccccc1-n1c(SCC(=O)N2CCOCC2)nc(O)c(Cc2ccccc2)c1=O,12.9
2,O=C(/C=C/c1cccc([N+](=O)[O-])c1)NCCc1ccc(F)cc1,-21.8
3,Cc1c(NS(=O)(=O)c2ccc(Br)s2)c(=O)n(-c2ccccc2)n1C,-1.13
4,COc1ccc2nc(SCC(=O)Nc3ccc(S(=O)(=O)Nc4nccc(C)n4)cc3)[nH]c2c1,-1
5,Cc1cc(C(=O)N2CCN(c3ccc([N+](=O)[O-])cc3)CC2)n[nH]1,-78.5
6,CCCCn1c(NC(=O)c2ccco2)c(C(=O)OCC)c2nc3ccccc3nc21,-42.1
7,CCCCn1c(CCNC(=O)c2ccco2)nc2ccccc21,-22.9
8,CCC(C(=O)OCc1csc(CC(=O)Nc2ccccc2C)n1)c1ccccc1 (stereo not drawn),-6.51
9,c1nc(N2CCCC2)c2[nH]cnc2n1,-3.15
10,COc1ccc(NC(=O)c2ccc(C#CC(C)(C)O)cc2)cc1,-5.36
11,COc1ccc(/C=C/C(=O)OCC(=O)NCc2cccs2)cc1OC,-12.4
12,CCOC(=O)c1cc2sccc2n1CC(=O)N1CCCc2ccccc21,-6.42
13,COc1ccc2c(Cl)c(C(=O)NCCc3ccc(S(N)(=O)=O)cc3)sc2c1,13
14,CC(C)(C)c1ccc(C(=O)N2CCN(CCNC(=O)C(=O)Nc3ccc(F)cc3)CC2)cc1,-52.5
15,Cc1oc2c(c1C(=O)NCc1cccnc1)C(=O)c1ccccc1C2=O,-47
16,CNC(=O)CSc1nnc(-c2ccco2)n1-c1ccc(C)cc1,-49.5
17,CC1CCN(C(=O)CN2c3cccc4cccc(c34)S2(=O)=O)CC1,-6.45
18,CC(=O)c1ccc(NC(=O)C[n+]2ccccc2)cc1.[Cl-],1.92
19,CC(=O)Nc1cccc(NC(=S)Nc2cccc(Cl)c2C)c1,1.46
20,CN(Cc1c(F)cccc1Cl)C(=O)c1ccc(NC(=O)CC2SC(N3CCCC3)=NC2=O)cc1 (stereo not drawn),-18.7
21,Cc1cc(Cl)c(S(=O)(=O)Nc2ccc3c(c2)OCO3)cc1OCC(N)=O,-14.4
22,CC(C)(C)NCC(O)COc1c(F)cc(Br)cc1F.Cl (stereo not drawn),-7.38
23,O=C(Nn1cnnc1)c1cc(Cl)ccc1Cl,20.9
24,COc1cccc(/C=N/Nc2ccc(S(=O)(=O)[O-])cc2)c1O.[K+],3.33
25,O=C(Nc1ccc2nc3ccccc3nc2c1)c1ccc(Br)cc1,17.9
26,CCCCOc1ccc(C(=O)NCc2ccccn2)cc1,-14.1
27,CCC(Sc1nc(-c2cccc(OC)c2)c(C#N)c(=O)[nH]1)C(=O)Nc1nnc(C(C)C)s1 (stereo not drawn),26.4

row,Compound,"hERG current change (%, negative = inhibition) at 10uM [%]"
1,O=C(CCc1[nH]c2ccccc2c1Sc1ccccc1)NCCO,-29.5
2,CCCCCC1CC(CC(=O)Nc2ccc([N+](=O)[O-])cc2)C(=O)O1 (stereo not drawn),-50
3,COc1ccc(NS(=O)(=O)c2ccc(OC)c3ccccc23)cn1,-23.9
4,CC(NC(=O)c1ccc(NC(=O)c2ccco2)cc1)c1ccccc1 (stereo not drawn),14.8
5,CCCc1[nH]n(-c2ccc([N+](=O)[O-])cc2)c(=O)c1C(C)=NCc1ccncc1,-52.4
6,COc1cc(C(=O)N/N=C\c2ccccc2)c([N+](=O)[O-])c(OC)c1OC,-9.89
7,Cc1nc2ccccc2nc1NS(=O)(=O)c1ccc(N)cc1,24.2
8,CCn1c(CCCNC(=O)c2ccc(F)cc2)nc2ccccc21,-41.3
9,COc1ccc(/C=C(\NC(=O)c2ccc(C)cc2)C(=O)Nc2ccc(C(=O)O)cc2)cc1,13.8
10,O=C(CNC(=O)c1ccc(Cl)cc1)NC(CO)c1ccccc1 (stereo not drawn),19.6
11,C[C@@H]1C[C@H]2[C@@H]3CCC4=CC(=O)C=C[C@]4(C)[C@@]3(F)[C@@H](O)C[C@]2(C)[C@H]1C(=O)CO,-7.28
12,COc1ccccc1N(CC(=O)NCc1cccnc1)S(C)(=O)=O,0.00228
13,O=C1OC(c2ccc(O)cc2)(c2ccc(O)cc2)c2ccccc21,-47.2
14,O=C(O)COc1ccc(NC(=O)C(c2ccccc2)c2ccccc2)cc1,9.04
15,O=c1[nH]ncc(N/N=C\c2cccnc2)c1Cl,-5.75
16,COc1ccccc1C(CC(=O)Nc1ccc(Cl)cc1)c1ccc(OC(C)C)cc1 (stereo not drawn),1.17
17,CCc1nnc(NS(=O)(=O)c2ccc(NC(=O)c3ccc(Cl)cc3)cc2)s1,-0.0112
18,CCOC(=O)N1CCC(N2C(=O)c3ccccc3C2Nc2cc(C)cc(C)c2)CC1 (stereo not drawn),-21.8
19,O=C(Nc1nc(-c2ccccn2)cs1)c1cccc(S(=O)(=O)N2CCOCC2)c1,-36.7
20,Cc1nc2cc(C(F)(F)F)ccc2n1C1CCN(CC(=O)NC(C)(C)C)CC1,-19.4
21,Nc1nnc(CCOc2ccc(Cl)cc2)s1,4.84
22,COc1ccc(NC(=O)CNC(=O)c2nn(-c3ccc(OC)cc3OC)c(=O)c3ccccc23)c(OC)c1,14.3
23,O=C(CN1CCN(CC(=O)Nc2ccc(Cl)cc2)CC1)Nc1ccc(F)cc1,-76.9
24,Nc1nnc(CC(=O)N/N=C/c2ccc(-c3cccc(C(=O)O)c3)o2)s1,16.8
25,Cc1ccc(NC(=S)NNC(=S)NC2CCCCC2)cc1,21
26,C/C(CC(=O)Nc1cccc(C(F)(F)F)c1)=N\NC(=O)C(=O)NCC(C)C,-14.1
27,COc1ccc(N2CCN(C(=O)COC(=O)c3cc(S(=O)(=O)N(C)C)ccc3N3CCCC3)CC2)cc1,-2.52
